The list shows a part of the results.
How the values were obtained:
Assay in all cases: glycan array binding signal (z-score within array); higher = stronger binding
Conditions in all cases: glycan notation: IUPAC condensed, linker removed
[1] = target: Gal(b1-4)GlcNAc(b1-3)Gal(b1-4)GlcNAc(b1-3)Gal(b1-4)GlcNAc(b1-3)Gal(b1-4)GlcNAc(b1-2)Man(a1-3)[Gal(b1-4)GlcNAc(b1-3)Gal(b1-4)GlcNAc(b1-3)Gal(b1-4)GlcNAc(b1-3)Gal(b1-4)GlcNAc(b1-2)Man(a1-6)]Man(b1-4)GlcNAc(b1-4)[Fuc(a1-6)]GlcNAc
Summary of the method: (§1)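 The binding signal is a Z-score computed within each array and averaged over linkers. Arrays of the same protein sequence at different concentrations or buffers were also averaged together. Data originate from 3228 arrays in the Consortium for Functional Glycomics database, kept only where the protein sequence was available.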

[2] = target: Gal(b1-4)GlcNAc(b1-3)Gal(b1-4)GlcNAc(b1-3)Gal(b1-4)GlcNAc(b1-3)Gal(b1-4)GlcNAc(b1-2)[Gal(b1-4)GlcNAc(b1-3)Gal(b1-4)GlcNAc(b1-3)Gal(b1-4)GlcNAc(b1-3)Gal(b1-4)GlcNAc(b1-6)]Man(a1-6)[Gal(b1-4)GlcNAc(b1-3)Gal(b1-4)GlcNAc(b1-3)Gal(b1-4)GlcNAc(b1-3)Gal(b1-4)GlcNAc(b1-2)Man(a1-3)]Man(b1-4)GlcNAc(b1-4)[Fuc(a1-6)]GlcNAc
Summary of the method: as §1

[3] = target: Gal(b1-4)GlcNAc(b1-3)Gal(b1-4)GlcNAc(b1-3)Gal(b1-4)GlcNAc(b1-3)Gal(b1-4)GlcNAc(b1-3)Gal(b1-4)GlcNAc(b1-2)Man(a1-3)[Gal(b1-4)GlcNAc(b1-3)Gal(b1-4)GlcNAc(b1-3)Gal(b1-4)GlcNAc(b1-3)Gal(b1-4)GlcNAc(b1-3)Gal(b1-4)GlcNAc(b1-2)Man(a1-6)]Man(b1-4)GlcNAc(b1-4)GlcNAc
Summary of the method: as §1

[4] = target: Gal(b1-4)GlcNAc(b1-3)Gal(b1-4)GlcNAc(b1-3)Gal(b1-4)GlcNAc(b1-3)Gal(b1-4)GlcNAc(b1-3)Gal(b1-4)GlcNAc(b1-2)Man(a1-3)[Gal(b1-4)GlcNAc(b1-3)Gal(b1-4)GlcNAc(b1-3)Gal(b1-4)GlcNAc(b1-3)Gal(b1-4)GlcNAc(b1-3)Gal(b1-4)GlcNAc(b1-2)Man(a1-6)]Man(b1-4)GlcNAc(b1-4)[Fuc(a1-6)]GlcNAc
Summary of the method: as §1

[5] = target: Gal(b1-4)GlcNAc(b1-3)Gal(b1-4)GlcNAc(b1-3)Gal(b1-4)GlcNAc(b1-3)Gal(b1-4)GlcNAc(b1-3)Gal(b1-4)GlcNAc(b1-2)[Gal(b1-4)GlcNAc(b1-3)Gal(b1-4)GlcNAc(b1-3)Gal(b1-4)GlcNAc(b1-3)Gal(b1-4)GlcNAc(b1-3)Gal(b1-4)GlcNAc(b1-6)]Man(a1-6)[Gal(b1-4)GlcNAc(b1-3)Gal(b1-4)GlcNAc(b1-3)Gal(b1-4)GlcNAc(b1-3)Gal(b1-4)GlcNAc(b1-3)Gal(b1-4)GlcNAc(b1-2)Man(a1-3)]Man(b1-4)GlcNAc(b1-4)[Fuc(a1-6)]GlcNAc
Summary of the method: as §1

[6] = target: Gal(b1-4)GlcNAc(b1-3)Gal(b1-4)GlcNAc(b1-3)Gal(b1-4)GlcNAc(b1-3)Gal(b1-4)GlcNAc(b1-3)Gal(b1-4)GlcNAc(b1-3)Gal(b1-4)GlcNAc(b1-2)Man(a1-3)[Gal(b1-4)GlcNAc(b1-3)Gal(b1-4)GlcNAc(b1-3)Gal(b1-4)GlcNAc(b1-3)Gal(b1-4)GlcNAc(b1-3)Gal(b1-4)GlcNAc(b1-3)Gal(b1-4)GlcNAc(b1-2)Man(a1-6)]Man(b1-4)GlcNAc(b1-4)GlcNAc
Summary of the method: as §1

[7] = target: Gal(b1-4)GlcNAc(b1-3)Gal(b1-4)GlcNAc(b1-3)GalNAc
Summary of the method: as §1

[8] = target: Gal(b1-4)GlcNAc(b1-3)Gal(b1-4)GlcNAc(b1-3)[Gal(b1-4)GlcNAc(b1-3)Gal(b1-4)GlcNAc(b1-6)]GalNAc
Summary of the method: as §1

[9] = target: Gal(b1-4)GlcNAc(b1-3)Gal(b1-4)GlcNAc(b1-6)[Gal(b1-3)]GalNAc
Summary of the method: as §1

[10] = target: Gal(b1-4)GlcNAc(b1-3)Gal(b1-4)[Fuc(a1-3)]GlcNAc(b1-3)Gal(b1-4)[Fuc(a1-3)]GlcNAc
Summary of the method: as §1

[11] = target: Gal(b1-4)GlcNAc(b1-3)GalNAc
Summary of the method: as §1

[12] = target: Gal(b1-4)GlcNAc(b1-3)[Fuc(a1-3)GlcNAc(b1-6)]Gal(b1-4)Glc
Summary of the method: as §1

[13] = target: Gal(b1-4)GlcNAc(b1-3)[Gal(b1-4)GlcNAc(b1-6)]Gal(b1-4)GlcNAc
Summary of the method: as §1

[14] = target: Gal(b1-4)GlcNAc(b1-3)[GlcNAc(b1-6)]Gal(b1-4)GlcNAc
Summary of the method: as §1

[15] = target: Gal(b1-4)GlcNAc(b1-6)Gal(b1-4)GlcNAc
Summary of the method: as §1

[16] = target: Gal(b1-4)GlcNAc(b1-6)GalNAc
Summary of the method: as §1

[17] = target: Gal(b1-4)GlcNAc(b1-6)[Gal(b1-3)]GalNAc
Summary of the method: as §1

[18] = target: Gal(b1-4)GlcNAc(b1-6)[Gal(b1-4)GlcNAc(b1-3)]GalNAc
Summary of the method: as §1

[19] = target: Gal(b1-4)GlcNAc6P
Summary of the method: as §1

[20] = target: Gal(b1-6)Gal
Summary of the method: as §1

[21] = target: Gal3S(b1-3)GalNAc
Summary of the method: as §1

[22] = target: Gal3S(b1-3)GlcNAc
Summary of the method: as §1

[23] = target: Gal3S(b1-3)[Fuc(a1-4)]GlcNAc
Summary of the method: as §1

B1: Thrombomodulin (Mus musculus) (protein)
chain: ALAKLQPTGSQCVEHECFALFQGPATFLDASQACQRLQGHLMTVRSSVAADVISLLLSQSSMDLGPWIGLQLPQGCDDPVHLGPLRGFQWVTGDNHTSYSRWARPNDQTAPLCGPLCVTVSTATEAAPGEPAWEEKPCETETQGFLCEFYFTASC
glycan array binding signal (z-score) [1]: 0.13 | glycan array binding signal (z-score) [2]: -0.014 | glycan array binding signal (z-score) [3]: 0.205 | glycan array binding signal (z-score) [4]: -0.018 | glycan array binding signal (z-score) [5]: 0.147 | glycan array binding signal (z-score) [6]: -0.233 | glycan array binding signal (z-score) [7]: 0.141 | glycan array binding signal (z-score) [8]: 0.052 | glycan array binding signal (z-score) [9]: -0.053 | glycan array binding signal (z-score) [10]: 0.126 | glycan array binding signal (z-score) [11]: -0.151 | glycan array binding signal (z-score) [12]: -0.205 | glycan array binding signal (z-score) [13]: -0.247 | glycan array binding signal (z-score) [14]: -0.029 | glycan array binding signal (z-score) [15]: -0.219 | glycan array binding signal (z-score) [16]: 0.062 | glycan array binding signal (z-score) [17]: -0.326 | glycan array binding signal (z-score) [18]: -0.307 | glycan array binding signal (z-score) [19]: -0.055 | glycan array binding signal (z-score) [20]: -0.119 | glycan array binding signal (z-score) [21]: 0.065 | glycan array binding signal (z-score) [22]: -0.007 | glycan array binding signal (z-score) [23]: -0.25

— the supplement of paper PMC8728848
